Measured values from publication PMC4336329 (PLoS ONE, 2015).
In all, about 310,000 compounds went through this assay and about 2,200 (0.71%) showed an effect of 50% or more. The effect is printed as a negative number. This is one part of the list.

Target: human ether-à-go-go-related gene (hERG) potassium channel (human, UniProt Q12809)
Test: primary screen, population patch clamp on CHO cells stably expressing hERG

human ether-à-go-go-related gene (hERG) potassium channel, sequence (Q12809 whole entry, looked up): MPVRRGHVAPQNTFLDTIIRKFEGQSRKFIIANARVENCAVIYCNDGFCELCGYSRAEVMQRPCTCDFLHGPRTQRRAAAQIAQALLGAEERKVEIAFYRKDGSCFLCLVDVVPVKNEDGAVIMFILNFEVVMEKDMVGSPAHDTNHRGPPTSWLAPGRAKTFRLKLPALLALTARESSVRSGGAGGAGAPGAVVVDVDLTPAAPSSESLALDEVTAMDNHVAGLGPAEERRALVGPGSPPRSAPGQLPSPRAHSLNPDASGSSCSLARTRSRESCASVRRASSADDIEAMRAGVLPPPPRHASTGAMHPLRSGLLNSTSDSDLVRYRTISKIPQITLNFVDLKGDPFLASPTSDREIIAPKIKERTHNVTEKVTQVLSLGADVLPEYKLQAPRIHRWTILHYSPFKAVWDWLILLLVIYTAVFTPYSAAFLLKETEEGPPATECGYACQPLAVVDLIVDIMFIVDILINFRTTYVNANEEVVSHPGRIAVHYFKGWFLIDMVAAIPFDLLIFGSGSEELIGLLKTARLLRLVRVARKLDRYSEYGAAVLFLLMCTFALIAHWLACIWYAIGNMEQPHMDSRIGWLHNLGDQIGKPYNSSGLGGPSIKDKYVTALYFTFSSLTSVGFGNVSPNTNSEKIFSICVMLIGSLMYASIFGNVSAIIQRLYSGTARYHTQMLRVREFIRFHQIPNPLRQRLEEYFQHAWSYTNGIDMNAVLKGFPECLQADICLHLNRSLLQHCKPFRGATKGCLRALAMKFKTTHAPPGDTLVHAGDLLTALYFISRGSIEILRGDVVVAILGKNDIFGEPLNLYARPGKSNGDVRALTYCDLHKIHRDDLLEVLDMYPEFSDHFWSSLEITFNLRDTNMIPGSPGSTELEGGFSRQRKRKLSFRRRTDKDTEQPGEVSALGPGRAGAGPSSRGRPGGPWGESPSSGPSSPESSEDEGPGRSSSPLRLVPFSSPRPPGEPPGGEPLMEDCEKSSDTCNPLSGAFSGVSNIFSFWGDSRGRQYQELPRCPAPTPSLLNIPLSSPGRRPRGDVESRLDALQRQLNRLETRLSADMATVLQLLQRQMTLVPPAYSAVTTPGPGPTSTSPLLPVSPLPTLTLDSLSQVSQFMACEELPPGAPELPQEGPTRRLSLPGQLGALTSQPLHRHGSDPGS

| Structure (SMILES) | hERG current change (%, negative = inhibition) at 1uM [%] |
| --- | --- |
| Cc1ccc(C)c(S(=O)(=O)N2CCN(C(=O)c3ccc(C)s3)CC2)c1 | 14.1 |
| Cn1cc(Cl)c(C(=O)N/N=C/c2ccc(OS(=O)(=O)c3ccccc3)cc2)n1 | -10.2 |
| O=C(NCc1ccc2c(c1)OCO2)c1cc(-c2ccncc2)nc2ccccc12 | -7.22 |
| NC(=O)Cn1nc([N+](=O)[O-])nc1Oc1ccc(Br)cc1 | 3.59 |
| COc1ccc(C(=O)OCC(=O)Nc2ccc(N3CCOCC3)cc2)cc1 | 7.45 |
| Cc1nc2c(C(=O)N3CCCC3)cnn2c(C)c1Cc1c(F)cccc1Cl | -11.4 |
| CC(/C=C/c1ccccc1)=N/NC(=O)Cn1nnc(N)n1 | 16.5 |
| Cc1cccc(CSc2nc3c(cc2C#N)CCC3)c1 | 15.2 |
| CC(=O)Nc1ccccc1C(=O)C(=O)Nc1ccc(Cl)cc1 | 7.72 |
| N#C/C(=N\Nc1ccccc1[N+](=O)[O-])C(=N)N1CCCCC1 | 5.9 |
| O=C(NCC(O)c1ccc([N+](=O)[O-])cc1)Nc1ccccc1 (stereo not drawn) | 7.3 |
| Cc1n[nH]c(=S)n1/N=C/c1ccccc1 | 10.1 |
| Cc1ccc(C(=O)N2CCCCCC2)cc1S(=O)(=O)N1CCOCC1 | 9.73 |
| O=C(OCc1ccc(COC(=O)c2cccnc2Cl)cc1)c1cccnc1Cl | 24 |
| Cc1ccccc1-n1c(C)nnc1SCC(=O)NCC1CCCO1 (stereo not drawn) | 5.63 |
| CCCNC(=O)C(Cc1ccc(C(F)(F)F)cc1)NC(=O)c1ccc2ccccc2n1 (stereo not drawn) | 12.1 |
| COc1ccc(CCNC(=O)CSc2nnc3ccc(-c4cccnc4)nn23)cc1OC | 8.74 |
| O=C(NCc1ccco1)C1CC(c2ccccc2C(F)(F)F)=NO1 (stereo not drawn) | 18.4 |
| Cc1ccc(NC(=O)CSc2nccc(=O)[nH]2)c(S(=O)(=O)N2CCOCC2)c1 | 4.66 |
| COc1cccc(NC(=O)C2C3CCC4C(CCC32)C4(Cl)Cl)c1 (stereo not drawn) | 8.03 |
| Cc1ccc(NC(=O)COC(=O)c2cccc(OC(F)F)c2)cc1S(=O)(=O)N1CCCCC1 | -2.62 |
| S=C(Nc1ccc(Cc2ccncc2)cc1)Nc1cccc(Cl)c1 | 5.91 |
| O=C(COC(=O)c1ccccc1-c1ccccc1[N+](=O)[O-])c1ccccc1 | 8.36 |
| CCCCc1cc2c(c(NC(C)=O)n1)c(=O)oc1ccccc12 | 15.8 |
| O=C(C1CCN(S(=O)(=O)c2cccc3cccnc23)CC1)N1CCN(Cc2ccccc2)CC1 | -1.55 |
| CC1=NN(c2ccccc2)C(=O)/C1=C\c1cc(C)n(-c2cccnc2)c1C | 16.3 |
| O=c1cc(Cl)[nH]c(=O)n1Cc1ccc(F)cc1 | 14.9 |

| Structure (SMILES) | hERG current change (%, negative = inhibition) at 1uM [%] |
| --- | --- |
| O=C(COc1ccc(Cl)cc1)Nc1ccc(C(=O)O)cc1NC(=O)COc1ccc(Cl)cc1 | 13.1 |
| Cc1ccc(C(=O)C(C)OC(=O)CNS(=O)(=O)c2ccc(C)cc2)cc1 (stereo not drawn) | 2.07 |
| CCOc1ccc(-c2nc(CSCC(=O)N3CCN(C(=O)c4ccco4)CC3)c(C)o2)cc1 | -8.95 |
| COc1cccc(N(CC(=O)NCCN2CCOCC2)S(=O)(=O)c2ccccc2)c1 | 4.79 |
| CC(=O)N1CCN(c2ccc(N=Cc3c(O)n(-c4ccc(Cl)cc4)c(=O)[nH]c3=O)cc2)CC1 | 3.84 |
| Cc1onc(-c2c(Cl)cccc2Cl)c1C(=O)Nc1ccc(C(N)=O)cc1 | 8.28 |
| Cc1nc2c(-c3ccc(F)cc3)c(C)nn2c(C)c1CCC(=O)Nc1ccc(F)cc1F | 12.2 |
| O=C1CCc2cc(S(=O)(=O)N3CCN(c4cccc(Cl)c4)CC3)ccc2N1 | -1.29 |
| COc1ccc(C(=O)NC(=S)Nc2cccc3nc(C)ccc23)cc1OC | 12.5 |
| CCOC(=O)c1[nH]c(C)c(C(=O)NCc2ccc(C)cc2)c1C | 7.5 |
| O=C(Cn1nc(-c2ccccc2)nc1-c1ccccc1)N1CCOCC1 | 10.1 |
| CC(=O)C1=C(O)C(=O)N(Cc2ccco2)C1c1ccc(F)cc1 (stereo not drawn) | -1.67 |
| CCC(C(=O)NCCCN1CCN(CC)CC1)n1nc(C)n2c(cc3occc32)c1=O (stereo not drawn) | 11.8 |
| CCCN1C(=O)CSC1=Nc1ccccc1 | 11.8 |
| CCCCC(=O)Nc1ccc(C(=O)NNC(=O)c2cccs2)cc1 | 3.66 |
| CCNC(=O)CSc1nnc(-c2ccccc2)n1-c1ccc(OCC)cc1 | -48.5 |
| N#CCNC(=O)C1c2ccccc2Oc2ccccc21 | 14.5 |
| Cc1nc(SCC(=O)c2ccccc2)c(C#N)c(-c2ccco2)c1C(=O)NCc1ccco1 | 2.31 |
| Cc1ccc(CNC(=O)Cn2c(=O)c3sccc3n(Cc3ccc([N+](=O)[O-])cc3)c2=O)cc1 | -3.44 |
| CCOc1ncccc1C(=O)Nc1ccc(F)cc1 | 6.95 |
| O=C(NC1CCCC1)C(c1ccccc1)N(C(=O)c1ccno1)c1ccccc1 (stereo not drawn) | 10.8 |
| COc1ccc(CCNC(=O)C2CCCN(S(C)(=O)=O)C2)cc1OC (stereo not drawn) | 14.9 |
| COC(=O)C1=C(COc2ccccc2)NC(=O)NC1c1ccc2ccccc2c1 (stereo not drawn) | 14.4 |
| Cc1cccc(C2Nc3cccc4cccc(c34)N2)c1 | 8.84 |
| CCCCn1c(N)c(N(CC(C)C)C(=O)c2ccc(Cl)c(S(=O)(=O)N3CCCC3)c2)c(=O)[nH]c1=O | 9.58 |
| O=C(COC(=O)c1cc(=O)[nH]c(=O)[nH]1)NCc1ccccc1 | 18.3 |
| CCS(=O)(=O)C1=NSC2=NC(=O)/C(=C\c3cc(C)n(-c4cccc(OC)c4)c3C)C(=N)N21 | 0.321 |
